The other results are listed elsewhere or left out.
Assays:
Test in all cases: glycan array binding signal (z-score within array); higher = stronger binding
Details in all cases: glycan notation: IUPAC condensed, linker removed
Gal3S(b1-4)Glc = molecular target: Gal3S(b1-4)Glc
Outline: (§1)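 Glycan array data came from 3228 arrays in the Consortium for Functional Glycomics database, and only arrays with an available protein sequence were kept. Glycan names were put into IUPAC-condensed notation, and columns mapping to the same glycan were averaged. The binding signal is a within-array Z-score, averaged across arrays of one protein sequence run at different concentrations or buffers and across linkers. A negative Z-score can be read as non-binding.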

Gal3S(b1-4)Glc6S = molecular target: Gal3S(b1-4)Glc6S
Outline: as §1

Gal3S(b1-4)GlcNAc = molecular target: Gal3S(b1-4)GlcNAc
Outline: as §1

[1] = molecular target: Gal3S(b1-4)[Fuc(a1-3)]Glc6S
Outline: as §1

[2] = molecular target: Gal3S(b1-4)[Fuc(a1-3)]GlcNAc
Outline: as §1

[3] = molecular target: Gal3S(b1-4)[Fuc(a1-3)]GlcNAc6S
Outline: as §1

Gal3S4S(b1-4)GlcNAc = molecular target: Gal3S4S(b1-4)GlcNAc
Outline: as §1

Gal3S6S(b1-4)GlcNAc = molecular target: Gal3S6S(b1-4)GlcNAc
Outline: as §1

Gal3S6S(b1-4)GlcNAc6S = molecular target: Gal3S6S(b1-4)GlcNAc6S
Outline: as §1

Gal4S(b1-4)GlcNAc = molecular target: Gal4S(b1-4)GlcNAc
Outline: as §1

Gal4S6S(b1-4)GlcNAc = molecular target: Gal4S6S(b1-4)GlcNAc
Outline: as §1

Gal6P(b1-4)GlcNAc = molecular target: Gal6P(b1-4)GlcNAc
Outline: as §1

Gal6S(b1-3)GlcNAc = molecular target: Gal6S(b1-3)GlcNAc
Outline: as §1

Gal6S(b1-3)GlcNAc6S = molecular target: Gal6S(b1-3)GlcNAc6S
Outline: as §1

Gal6S(b1-4)Glc = molecular target: Gal6S(b1-4)Glc
Outline: as §1

Gal6S(b1-4)Glc6S = molecular target: Gal6S(b1-4)Glc6S
Outline: as §1

Gal6S(b1-4)GlcNAc = molecular target: Gal6S(b1-4)GlcNAc
Outline: as §1

Gal6S(b1-4)GlcNAc6S = molecular target: Gal6S(b1-4)GlcNAc6S
Outline: as §1

GalNAc(a1-3)Gal = molecular target: GalNAc(a1-3)Gal
Outline: as §1

GalNAc(a1-3)GalNAc = molecular target: GalNAc(a1-3)GalNAc
Outline: as §1

[4] = molecular target: GalNAc(a1-3)GalNAc(b1-3)Gal(a1-4)Gal(b1-4)Glc
Outline: as §1

[5] = molecular target: GalNAc(a1-3)GalNAc(b1-3)Gal(a1-4)Gal(b1-4)GlcNAc
Outline: as §1

GalNAc(b1-3)Gal = molecular target: GalNAc(b1-3)Gal
Outline: as §1

[6] = molecular target: GalNAc(b1-3)Gal(a1-4)Gal(b1-4)GlcNAc
Outline: as §1

[7] = molecular target: GalNAc(b1-3)Gal(a1-4)Gal(b1-4)GlcNAc(b1-3)Gal(b1-4)Glc
Outline: as §1

[8] = molecular target: GalNAc(b1-3)Gal(a1-6)Gal(b1-4)Glc
Outline: as §1

GalNAc(b1-3)GalNAc = molecular target: GalNAc(b1-3)GalNAc
Outline: as §1

GalNAc(b1-3)GlcNAc = molecular target: GalNAc(b1-3)GlcNAc
Outline: as §1

GalNAc(b1-4)Gal(b1-4)Glc = molecular target: GalNAc(b1-4)Gal(b1-4)Glc
Outline: as §1

GalNAc(b1-4)GlcNAc = molecular target: GalNAc(b1-4)GlcNAc
Outline: as §1

[9] = molecular target: GalNAc(b1-4)GlcNAc(b1-2)Man
Outline: as §1

[10] = molecular target: GalNAc(b1-4)GlcNAc(b1-2)Man(a1-3)[GalNAc(b1-4)GlcNAc(b1-2)Man(a1-6)]Man(b1-4)GlcNAc(b1-4)GlcNAc
Outline: as §1

[11] = molecular target: GalNAc(b1-4)GlcNAc(b1-3)GalNAc(b1-4)GlcNAc
Outline: as §1

GalNAc(b1-4)GlcNAc6S = molecular target: GalNAc(b1-4)GlcNAc6S
Outline: as §1

GalNAc(b1-6)GalNAc = molecular target: GalNAc(b1-6)GalNAc
Outline: as §1

GalNAc3S(b1-4)GlcNAc = molecular target: GalNAc3S(b1-4)GlcNAc
Outline: as §1

GalNAc3S(b1-4)GlcNAc3S = molecular target: GalNAc3S(b1-4)GlcNAc3S
Outline: as §1

[12] = molecular target: GalNAc3S(b1-4)[Fuc(a1-3)]GlcNAc
Outline: as §1

GalNAc4S6S(b1-4)GlcNAc = molecular target: GalNAc4S6S(b1-4)GlcNAc
Outline: as §1

GalNAc6S(b1-4)GlcNAc = molecular target: GalNAc6S(b1-4)GlcNAc
Outline: as §1

Glc(a1-4)Glc = molecular target: Glc(a1-4)Glc
Outline: as §1

[13] = molecular target: Glc(a1-4)Glc(a1-4)Glc(a1-4)Glc
Outline: as §1

Glc(a1-6)Glc(a1-6)Glc = molecular target: Glc(a1-6)Glc(a1-6)Glc
Outline: as §1

[14] = molecular target: Glc(a1-6)Glc(a1-6)Glc(a1-6)Glc
Outline: as §1

Glc(b1-4)Glc = molecular target: Glc(b1-4)Glc
Outline: as §1

B1: SP8524D-bot-399-27-399 (Bacteroides ovatus) (protein)
chain: DAKYDTLDTHAYIEEALSSTSQKVTVQATGESFTTLNVHLSNLSSTDNHYKLVTDQSVLDTYNHINGTGYIMLPKDYYTLPETITVKAGQYAADALSIALKAFSQEMMKSGESYALPVKLVLQDGSISPMENTGTFVILAESIIEFSAPMFVGAPSLKANKFTESPETYSQYTIEVRFQVANTADRDRAVFKNGGDDANFILLRFEDPQSDNENYKAHSLVQIVGRNRLYLNPSNSFKPNEWQHLALVCDGSNYRLYINGVDSGVLSIPTGATTFSDVNWFCLGDDSYSRWGNCKILMSEARIWSVVRSASQIQNNMTQVSPKSVGLEAYWRFNEGQGNVFEDATGKGHTLTTSATPTWIDGILSTDKSTEWK
glycan array binding signal (z-score) (Gal3S(b1-4)Glc): 0.001
glycan array binding signal (z-score) (Gal3S(b1-4)Glc6S): -0.176
glycan array binding signal (z-score) (Gal3S(b1-4)GlcNAc): -0.262
glycan array binding signal (z-score) [1]: 0.122
glycan array binding signal (z-score) [2]: -0.048
glycan array binding signal (z-score) [3]: 0.203
glycan array binding signal (z-score) (Gal3S4S(b1-4)GlcNAc): -0.075
glycan array binding signal (z-score) (Gal3S6S(b1-4)GlcNAc): 0.506
glycan array binding signal (z-score) (Gal3S6S(b1-4)GlcNAc6S): 0.124
glycan array binding signal (z-score) (Gal4S(b1-4)GlcNAc): 0.045
glycan array binding signal (z-score) (Gal4S6S(b1-4)GlcNAc): 0.875
glycan array binding signal (z-score) (Gal6P(b1-4)GlcNAc): 0.046
glycan array binding signal (z-score) (Gal6S(b1-3)GlcNAc): -0.216
glycan array binding signal (z-score) (Gal6S(b1-3)GlcNAc6S): 0.293
glycan array binding signal (z-score) (Gal6S(b1-4)Glc): -0.015
glycan array binding signal (z-score) (Gal6S(b1-4)Glc6S): -0.373
glycan array binding signal (z-score) (Gal6S(b1-4)GlcNAc): 0.112
glycan array binding signal (z-score) (Gal6S(b1-4)GlcNAc6S): 0.274
glycan array binding signal (z-score) (GalNAc(a1-3)Gal): -0.307
glycan array binding signal (z-score) (GalNAc(a1-3)GalNAc): -0.153
glycan array binding signal (z-score) [4]: -0.421
glycan array binding signal (z-score) [5]: -0.337
glycan array binding signal (z-score) (GalNAc(b1-3)Gal): -0.272
glycan array binding signal (z-score) [6]: 0.126
glycan array binding signal (z-score) [7]: -0.549
glycan array binding signal (z-score) [8]: -0.334
glycan array binding signal (z-score) (GalNAc(b1-3)GalNAc): -0.48
glycan array binding signal (z-score) (GalNAc(b1-3)GlcNAc): -0.116
glycan array binding signal (z-score) (GalNAc(b1-4)Gal(b1-4)Glc): -0.135
glycan array binding signal (z-score) (GalNAc(b1-4)GlcNAc): 0.432
glycan array binding signal (z-score) [9]: 0.026
glycan array binding signal (z-score) [10]: -0.19
glycan array binding signal (z-score) [11]: -0.306
glycan array binding signal (z-score) (GalNAc(b1-4)GlcNAc6S): 0.264
glycan array binding signal (z-score) (GalNAc(b1-6)GalNAc): -0.112
glycan array binding signal (z-score) (GalNAc3S(b1-4)GlcNAc): -0.2
glycan array binding signal (z-score) (GalNAc3S(b1-4)GlcNAc3S): -0.359
glycan array binding signal (z-score) [12]: 0.563
glycan array binding signal (z-score) (GalNAc4S6S(b1-4)GlcNAc): -0.062
glycan array binding signal (z-score) (GalNAc6S(b1-4)GlcNAc): -0.432
glycan array binding signal (z-score) (Glc(a1-4)Glc): -0.117
glycan array binding signal (z-score) [13]: -0.243
glycan array binding signal (z-score) (Glc(a1-6)Glc(a1-6)Glc): -0.172
glycan array binding signal (z-score) [14]: -0.387
glycan array binding signal (z-score) (Glc(b1-4)Glc): -0.387
